# The supplement of paper PMC11383711
# This is one part of the list. Binding of human antibodies (heavy:light variable regions, tested as scFv in one mRNA-display pool) to influenza hemagglutinin, with or without the stem antibody CR9114 bound first. Score = (mean enrichment − median) / interquartile range of that screen; higher = more enriched, 0 = typical non-binder. Active = above the paper's cut-off per screen: stems 28; unblocked H1 Solomon Islands 5, H1 Michigan 3, H3 5, H5 19, H7 2.85, both B 5; blocked 9, 7, H5 10, H7 10, B Phuket 10, B Lee 11.5. Scores are scaled within each screen and are no affinities; replicates correlate at about 0.6 to 0.9, and antibodies rare in the pool are noisier.
# B1: 039-10-4G01 (protein)
# chain 1: QVQLVQSGAEVKKPGASVKVSCKASGYTFSTYYIHWVRQAPGQGPEWMGIINPNGGTVAYARKFQGRVTMTRDTSTSTVYMDLRSLSSEDTAVYYCARDGREVPATTRKDYYYYYYMDIWGRGTTVTVSS
# chain 2: DIVMTQSPDSLAVSLGERATINCKSSQSVFYSSNNKDDLAWYQQKPGQPPKLLIYWASTRGSGVPDRFSGSGSGTDFTLTISSLQAEDVAVYYCQQYYTTPPTFGGGTKVEIK
# B2: 01.l.01 (protein)
# chain 1: EVQLVESGGGLVQPGRSLRLSCAASGFTFHDYAMHWVRQVPGKGLEWVSSISWNSYRIGYADSVKGRFTISRDNAKNSLYLQMNSLRAEDTALYYCAKDPQGELIGGRFDPWGQGTLVTVSS
# chain 2: DIQMTQSPSSLSASVGDRVTITCRASQSITTYLNWYQQKPGKAPKLLIHTASNLQSGVPSRFSGSGSGTDFTLTISSLQPEDFATYYCQQSYSTRFTFGPGTKVDIK
# B3: 2-12C (protein)
# chain 1: EVQLVQSGAEVKKPGESLKISCKGSGNGFTTYWIGWVRQVPGKGLEWMGIIYPDDSDTRYSPSFQGQVSISADKSISTAFLQWSSLKASDTAMYFCARLGDVETAMVGQDAFHIWGQGTMVTVSS
# chain 2: EIVLTQSPGTLSLSPGDRATLSCRASQSVSSSFLAWYQQKPGQAPRLLMYGASRRATGIPDRFSGSGSGTDFTLTISRLEPEDFAVYYCQQYDSSPFTFGGGTKVEIK
# B4: FISW-k.01 (protein)
# chain 1: QVTLRESGPALVKPTQTLTLTCTFSGFSLSTSGMCVSWIRQPPGKALEWLALIDWDDGTFYSTSLKTRLTISKDTSKSQVVLTMTNMGPVDTGTYYCARKLYGDYSDWFDYWGQGILVTVSS
# chain 2: SYELTQPLSVSVALGQTARITCGGNNIGSKNVHWYQQKPGQAPVLVIYRDSNRPSGIPERFSGSNSGNTATLTVSRAQAGDEADYYCQLSDSSIVVFGGGTKLTVL
# B5: 029-09-2A06 (protein)
# chain 1: EVQLVESGGGLVKPGGSLRLSCSASGFTFSSYTMHWVRQAPGKGLEWLSSISSSSAYIYYADSVKGRFTVSRDNAKKSLYLQMDSLRAEDTAIYFCARDGTSLTVAGPLDYWGQGTLVTVSS
# chain 2: DIQMTQSPSSLSASVGDRVTITCRASQGIRDDLAWYQQKPGKAPKRLIYAASSLQSAFPARFSGSGSGTEFTLTISGLQPEDFATYYCLQYNSYPRTFGQGTKVEIK
# B6: S8V1-146-Ig (protein)
# chain 1: SGAEVKKPGASVKVSCKASGYKFTNYYVHWVRQAPGQGLEWMGIINPREWLGIMNPRAGKTVFAQKFQARVSVTADTSTSTVSMELNSLGYEDTAVYFCARGHDILTDYPHLHWLDSWGQGTLVTVSS
# chain 2: SITPGESASISCSSAQSLLRRDGYNYLDWYLRKAGQPPQLLIYLGSTRASGVPDRFSGSGSGTNFTLKISRAEAEDVGVYYCMQALQMPLTFGGGTQVEI
# Biological target: Influenza A H1N1 A/Michigan/45/2015 hemagglutinin ectodomain
# Experiment: mRNA display binding score; higher = more enriched on the antigen
# Details: antigen blocked with: 2 µM CR9114 IgG
# Method: (§1)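 A pool of natively paired antibodies, displayed as scFv on mRNA, was selected once on antigen-coated beads and sequenced before and after; two replicates.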
row,Binder,mRNA display binding score
1,B1,inactive: 0.0816
2,B2,inactive: 0.0532
3,B3,active: 80.7
4,B4,active: 10.2
5,B5,active: 7.61
6,B6,inactive: 1.54

# Same assay, conditions: antigen blocked with: nothing
row,Binder,mRNA display binding score
1,B1,inactive: 0.374
2,B2,inactive: -0.53
3,B3,active: 3.93
4,B4,inactive: 0.896
5,B5,inactive: -0.00531
6,B6,inactive: -0.0561

# Biological target: Influenza A H1N1 A/Solomon Islands/3/2006 hemagglutinin ectodomain
# Experiment: as above
# Details: antigen blocked with: 2 µM CR9114 IgG
# Method: as §1
row,Binder,mRNA display binding score
1,B1,inactive: -0.384
2,B2,inactive: -0.397
3,B3,inactive: -0.267
4,B4,active: 13.8
5,B5,inactive: 4.89
6,B6,inactive: 0.91

# Same assay, conditions: antigen blocked with: nothing
row,Binder,mRNA display binding score
1,B1,inactive: 1.96
2,B2,inactive: 0.644
3,B3,inactive: -0.279
4,B4,inactive: 1.71
5,B5,inactive: 2.67
6,B6,inactive: 3.47

# Biological target: Influenza A H3N2 A/Singapore/INFIMH-16-0019/2016 hemagglutinin ectodomain
# Experiment: as above
# Details: antigen blocked with: nothing
# Method: as §1
row,Binder,mRNA display binding score
1,B1,inactive: -0.253
2,B2,inactive: -0.114
3,B3,inactive: -0.499
4,B4,inactive: 0.242
5,B5,inactive: -0.54
6,B6,inactive: 0.0465

# Biological target: Influenza A H5N1 A/Qinghai/1A/2005 hemagglutinin ectodomain
# Experiment: as above
# Details: antigen blocked with: 2 µM CR9114 IgG
# Method: as §1
row,Binder,mRNA display binding score
1,B1,inactive: -0.102
2,B2,inactive: 0.452
3,B3,inactive: 0.301
4,B4,inactive: 0.294
5,B5,inactive: 0.062
6,B6,inactive: 1.37

# Same assay, conditions: antigen blocked with: nothing
row,Binder,mRNA display binding score
1,B1,inactive: -0.000986
2,B2,inactive: -0.0742
3,B3,inactive: 0.0673
4,B4,inactive: 0.873
5,B5,inactive: -0.166
6,B6,inactive: 0.19

# Biological target: Influenza A H7N9 A/Shanghai/2/2013 hemagglutinin ectodomain
# Experiment: as above
# Details: antigen blocked with: 2 µM CR9114 IgG
# Method: as §1
row,Binder,mRNA display binding score
1,B1,inactive: -0.000668
2,B2,inactive: 0.195
3,B3,inactive: -0.476
4,B4,inactive: 1.18
5,B5,inactive: 1.05
6,B6,inactive: 0.523

# Same assay, conditions: antigen blocked with: nothing
row,Binder,mRNA display binding score
1,B1,inactive: 0.641
2,B2,inactive: -0.394
3,B3,inactive: 0.106
4,B4,inactive: 0.307
5,B5,inactive: -0.674
6,B6,inactive: 1.42

# Biological target: Influenza B/Lee/1940 hemagglutinin ectodomain
# Experiment: as above
# Details: antigen blocked with: 2 µM CR9114 IgG
# Method: as §1
row,Binder,mRNA display binding score
1,B1,inactive: -1.12
2,B2,inactive: -0.874
3,B3,inactive: -0.91
4,B4,inactive: 3.53
5,B5,inactive: -0.705
6,B6,inactive: -0.198

# Same assay, conditions: antigen blocked with: nothing
row,Binder,mRNA display binding score
1,B1,inactive: 0.417
2,B2,inactive: 0.787
3,B3,inactive: -0.227
4,B4,inactive: 1.75
5,B5,inactive: -0.337
6,B6,inactive: 1.24

# Biological target: Influenza B/Phuket/3073/2013 hemagglutinin ectodomain
# Experiment: as above
# Details: antigen blocked with: 2 µM CR9114 IgG
# Method: as §1
row,Binder,mRNA display binding score
1,B1,inactive: -0.266
2,B2,inactive: -0.119
3,B3,inactive: -0.358
4,B4,inactive: 2
5,B5,inactive: -0.203
6,B6,inactive: 0.912

# Same assay, conditions: antigen blocked with: nothing
row,Binder,mRNA display binding score
1,B1,inactive: 0.391
2,B2,inactive: 0.572
3,B3,inactive: -0.221
4,B4,inactive: 1.4
5,B5,inactive: -0.335
6,B6,inactive: 2.24
